Read counts are not given, so values of variants with three or more changes are uncertain.
B1: CPEB3 Ribozyme (parent)
chain: UAACAGGGGGCCACAGCAGAAGCGUUCACGUCGCAGCCCCUGUCAGAUUCUGGUGAAUCUGCGAAUUCUGCUGUAUAUCUC

Variants of: B1
Test: self-cleavage, relative activity (ratio to wild type); higher = more cleavage; in vitro, sequencing
Method in brief: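 Relative activity was defined as the cleaved/total read fraction for a variant divided by the same fraction for the unmutated ribozyme. CPEB3 self-cleaving ribozyme libraries were made by rounds of error-prone PCR, barcoded, and transcribed in vitro with T7 RNA polymerase for 5 hours at 37°C, and cleavage ran through transcription plus a 15 min DNase I step before EDTA. Illumina sequencing of template-switched reverse transcripts gave the reads, and DNA sequencing mapped the barcodes. Averages come from three batches, using variants with at least 5 reads.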

Variant	self-cleavage
U1C A15U A18G G33A A56G A65U	0.05
U1A U25A A77G	0.35
U1C A3U A18G A20G U58C	0.52
U1C U51A A64G U72A U80C	1.26
U1C A3G A18G A45G U49C C62A	0.02
U1C A5G U48C	0.62
U1C A5U C37U U74C	0.65
U1C G6A C12U A15G A28U A35U	0.05
U1C A3G A18U U69G	1.15
A2C A3G A75U	1.11
U1A G36C C62G	0.19
U1A G10A A20G A45U U60A A64G U76C	0.05
U1C A3G A20G U48C G53A A64G	0.13
U1C A13G C79U	1.06
U1A C40G U48C U67C U80C	0.18
U1C A15G U25A U43C U58A A77U	0.02
U1C A35G G36U	0.34
U1C A5G A21C U25C A56G	0.12
U1G A45G U69A	0.51
U1C U43C A57G U76A U80C	0.31
U1C U43A U48C U67A	0.16
U1C G9A C50U U54C U66C C71U	0.08
U1C A15U G19U U25C	0.24
U1A G24U C44G	0.07

Variant	self-cleavage
U1C G52U U80C	1.14
U1A A56G U60C A64G	0.23
U1C A18C U41C U54G A56U U69C	0.1
U1A A45U U76C	0.65
U1G A15U G16A A18G U31C C40U U58A	0.05
U1A C14G A28U U48C U54A U67C	0.14
U1C G9A A57G U76A	0.11
U1C A2G A20C U66C	0.09
U1G U41A A45U	0.02
U1C A13U U78A	0.85
U1G U41A G61A U67C U69C U74C U80C	0.06
U1C A2G A56G A57G U60C	0.24
U1A C4A A15G U25C A28G A35U A47G	0.2
U1A G6A U31C C34U A64U U78C	0.04
U1C A2G C50U U76C U80C	0.59
U1C C29G U58C	0.32
U1C G10A A21U U25C U31C A35G	0.23
U1C A13G A18U A45U	0.06
U1C A20G U31C U43C	0.11
U1C A13U U26C C50U	0.26
U1C U48C U58A	0.16
U1C A5C G7C U78C	0.64
U1C U31A A64G	0.4
U1G A13G A20U U25A C44U	0.07

Variant	self-cleavage
U1C A18U A35U U67C U69A	0.07
U1C U54C A65G U74C	0.59
U1A U25C U31C U72A	0.14
U1C G73A U80C	1.27
U1C A56U U58C	0.1
U1G G6U G10U U48C A56G	0.23
U1C G10U U25C U41C U69A	0.05
U1C A13G U31C A64U	0.33
U1C A2U U43C A56G U60C	0.27
U1C U54C A65U U72A U76C	0.21
U1C A5G A13G	0.33
U1A G24A U25C U41C U49C A56G	0.07
U1C A18G C29U A56U C59A	0.19
U1C G9A U54A U66G U69C U72C	0.04
U1C A35G U41A U67C	0.08
U1A C23A U58C G70A	0.14
U1G A20G A35G U49C A65G U74C	0.29
U1C C40U C44A	0.43
U1C A28G G52A U72C	0.85
U1C A20C A35G U69C	0.83
U1A C23U U43A U51A A56G A57U	0.07
U1A G30U A35U U41A U54C A57G U67C	0.03
U1C A15G G24A U31C A64U U74C	0.04
U1C G9A U26C U54C U60A	0.05

Variant	self-cleavage
U1G A2G C44U A57G	0.1
U1C A13U A64G U69C	0.41
U1C A18G A56G U69A	0.19
U1C U74A A77U	1.12
U1C A18U A35G A45U C62U A64U U66G	0.2
U1C U43C U74C	0.75
U1C U41G U78C	0.34
U1C C27A A28G C34A	0.26
U1C A18U A28U A35G U74C	0.96
U1A U76A U80A	1.1
U1C C11U A13U U31A U43C U69C	0.04
U1A U49A U66C U69A	0.15
U1C G8U A18U	0.06
U1C A20G A45G	0.53
U1G G9C U54C	0.43
U1C A5G A13U A35G C40A U60A	0.33
U1C A5U A15G U41C U43C A75G	0
U1C G6U A57U U72C U78C	0.07
U1C C4A U76C U78C	1.21
U1C A5G A18G U67C U76A	0.2
U1C U48C U54C G55A A56U	0.17
U1C A3G A20G U26C	0.6
U1C A2G U25C U49C U51C	0.52
U1G A64U U66C	0.3

Variant	self-cleavage
U1C G10A A35G	0.51
U1C U26C A28G A35G U69C	0.09
U1A A35G U43C	0.98
U1C C12U U26C U43C A77U	1.12
U1C C23G U43A U67G	0.05
U1C A20G A45G U51A U58A	0.32
U1C A15G U41A A45U A57G U58A	0.05
U1A C29A A57G	0.37
U1C A28G A35U U41A G52A A77G	0.1
A2C A13U A56U A64G	0.26
U1C A13G U26A A35G U67C	0.36
U1A U41A A45G	0.2
U1C A15G A21G C62A U72C	0.36
U1A U31C A35G	0.81
U1C G7U U25C C39A	0.25
U1C A3U A28G U49A	0.41
U1C A13U U31C U80C	1.03
U1A U25C A56U A65G	0.08
U1C U25C U31C U60C A64U U72C	0.14
U1C A15U U31C C44U A57G U69A	0.2
U1C A5G A13U U41A C44A U60C	0.36
U1A A57G U69C A75G A77U	0.32
U1A U26C U72A	0.4
U1C G8A A18G A35U A64G	0.05

Variant	self-cleavage
U1C A13U G24C U72G	0.25
U1C U26C A77G	0.72
U1A G7A A35G U43A	0.32
U1C A2U A57G	0.81
U1C A15G G22A G52A U67A U74C A77U	0.04
U1C G63A U72C	0.94
U1C U41C U67C U76C A77U	0.16
U1C G9A A13G A15U U80C	0.43
U1C G7A G53U	0.4
A2C A5C C27U U66C	0.25
U1C A5G U25C A35G U43C U67A	0.19
U1A G10A A13G U25C U31C U43C	0.01
U1A G8U A13U A21G U69C U74C A75G	0.05
U1C C29U U49C U69A U80A	0.05
U1C A3G U48C U49C C62A U72C	0.14
U1C U43C A65G U72C	0.12
U1C A2U C38U A65U	0.06
U1C A2C A47G A56G G73C U78G	0.33
U1C A2U U31C U48C U51C U58C U69A	0.07
U1C C11A C40A U69C U80C	0.05
U1G A35G U54C C68U	1.26
U1C A28G U41C A45U U48C A56U U69A	0.04
U1C A28G A45G	0.32
U1G A20G A35G U67C U76C	1.14

Variant	self-cleavage
U1C A57G U74C A75G	1.15
U1C A28U G42C	0.26
U1C A28C U51A	0.44
U1A G9U U72C	0.05
U1C A18G U51A G61A C68U	0.43
U1C A56G C62U A65G U67C C79A	0.18
U1A C62A U72C	0.51
U1C G19U A20G A21U U60A	0.17
U1C G8U U54G	0.25
U1C U41C G42A G73U	0.2
U1C A64G U78C	0.62
U1C U25A U31G A56G	0.38
U1C A45G U54C U80C	0.6
U1C A57G U67C	0.22
U1C U25C G53U U74C U80C	0.36
U1C A28U U66C	0.27
U1A G16U A18U U49C U67C A77G	0.12
U1A U60A U69A U80C	0.33
U1A U26C A47C	0.15
U1C U31C U80C	0.74
U1C A21G C39G U49C U54A U69C A75U	0.03
U1C A18U U41C A64G	0.11
U1C G33U C39U A57G U67A U76C	0.04
